From ChEMBL document CHEMBL4888484, “Replenishing the malaria drug discovery pipeline: Screening and hit evaluation of the MMV Hit Generation Library 1 (HGL1) against asexual blood stage Plasmodium falciparum ,using a nano luciferase reporter read-out” (2022) come the findings set out here.

Screen size: about 150,000 compounds; about 540 (0.36%) showed an effect of 50% or more. The list shows a part of the results.

In the assay the test system is Plasmodium falciparum. Description: Primary screen in NF54 nanoGlo assay, in single point, at 2uM, 72h; a lower Z score goes with more inhibition. Particulars: timepoint 72 hour. Type of assay: functional, Erythrocyte.
Consider `CC(C)N(CCN(C)C)C(=O)Nc1ccc(-n2ncn(C)c2=O)cc1`, for which the “% Inhibition” value is -11% and the Z score came to 1.76.

On to `Cc1ccc(S(=O)(=O)C[C@H](CN2CCCC2)N2CCCC2)cc1`, for which the “% Inhibition” value turned out to be 31% and the Z score is -3.47.

`CO[C@@]1(CNC(=O)c2ccc(OC(C)(C)C)cn2)CCOC1`: the “% Inhibition” value is recorded as -12% and the Z score came out at 1.72.

On to `CC(C)[C@]1(C)CC(=O)N(CCOCC(F)F)C1=O`, for which the “% Inhibition” value was -6% and the Z score was found to be 0.7.

As to `OCCOCCNCc1cccc(Cl)c1`, the “% Inhibition” value is 28% and the Z score is given as -3.74.

Take `Cc1c(COc2ccccc2)cccc1N[C@H]1CCNC1=O`: the “% Inhibition” value is on record as -11% and the Z score is recorded as 1.36.

For the molecule `CN(C[C@H]1CCCN1C)c1ccnc(C(=O)NCc2cccnc2)c1`, the “% Inhibition” value worked out at 5% and the Z score is given as -1.

For the molecule `CC1CCN(S(=O)(=O)c2cc(-c3nnc(C(C)C)o3)co2)CC1`, the “% Inhibition” value was 5% and the Z score is listed as -0.66.

`CC(C)(C)OC(=O)N1CC(N2CCC(S(N)(=O)=O)CC2)C1`: the “% Inhibition” value is -4% and the Z score was 0.67.

On to `COC1CN(C(=O)Nc2ccc3c(c2)C(=O)CCC3)CCC1C` (stereo not drawn), for which the “% Inhibition” value is -10% and the Z score was 1.9.

On to `Cc1ccc(CNc2nc(C)nc3c(-c4ccc(C)cc4)noc23)cc1`, for which the “% Inhibition” value is listed as -20% and the Z score was 2.54.

For `COc1cccc(C(=O)N2CC(C(=O)NCC3CC3)C(c3cccc(OC)c3OC)C2)c1` (stereo not drawn), the “% Inhibition” value was found to be 0% and the Z score was found to be 0.01.

Consider `COc1cccc([C@H]2CC(=O)Nc3nc(N)sc32)c1OCc1ccc(Cl)cc1`, for which the “% Inhibition” value is listed as -8% and the Z score turned out to be 0.84.

`CCC(C)CC(C)NC(=O)Nc1cc(S(C)(=O)=O)ccc1F` (stereo not drawn): the “% Inhibition” value came out at 0% and the Z score is reported as 0.

`Cc1c(Cl)cccc1C(=O)NC[C@H](CC1CC1)C(=O)O`: the “% Inhibition” value is given as -5% and the Z score is 0.69.

With `CC(c1ccccc1)C(C)(O)C(=O)NCC1CCC(C)(C)O1` (stereo not drawn), the “% Inhibition” value came out at 4% and the Z score is on record as -0.38.

`CCc1cccc(C)c1NC(=O)CN(C)CC(=O)N1CCN(Cc2ccccc2)CC1`: the “% Inhibition” value is listed as -3% and the Z score was found to be 0.36.

On to `C[C@H]1c2ccccc2CCN1CCc1nc2ccccc2c(=O)[nH]1`, for which the “% Inhibition” value is given as -6% and the Z score came to 1.14.

For `CCOc1ccc([C@H]2C(=O)N(C3CCCCCC3)CC(=O)N2Cc2ccc(OC)cc2)cc1OC`, the “% Inhibition” value is recorded as 9% and the Z score was -1.53.

`CN(C)C(=O)CNC(=O)COc1ccc(Cl)cc1`: the “% Inhibition” value was 1% and the Z score was -0.16.

As to `COc1ccccc1CCNC(=O)C1Cc2cc(C(F)(F)F)ccc2N2CCN(c3ncccn3)CC12` (stereo not drawn), the “% Inhibition” value is listed as -4% and the Z score came to 0.7.

For `O=C(NCc1noc(Cc2ccccc2)n1)c1coc(C2CC2)n1`, the “% Inhibition” value is -6% and the Z score was determined as 0.88.

Regarding `CC1CC1C(=O)NCc1nnnn1C1CC1` (stereo not drawn), the “% Inhibition” value is on record as -12% and the Z score is 1.58.

Take `CCCC[C@H](CC)C(=O)NC1CCCCC1`: the “% Inhibition” value turned out to be 36% and the Z score was -0.74.

Take `O=C(CC1(C(F)(F)F)CC1)N1CC[C@@H](c2ccccc2)S1(=O)=O`: the “% Inhibition” value came to 3% and the Z score is -0.29.

Turning to `O=C(c1cccc(-n2cccn2)n1)N1CCC=Cc2ccccc21`, the “% Inhibition” value is -8% and the Z score was 1.16.

In the case of `O=C(CCC1CCCC1)N1CCC(N2CCCCCC2)CC1`, the “% Inhibition” value turned out to be 36% and the Z score was -0.84.

With `Cc1cc(Cc2ccc(S(=O)(=O)Nc3ccc(C)c(C)c3)cc2)c(=O)[nH]n1`, the “% Inhibition” value was -4% and the Z score is on record as 0.37.

For the molecule `Cc1cc(C)cc(C(=O)N2CCN(c3cc(-c4ccc(Cl)cc4)ncn3)CC2)c1`, the “% Inhibition” value was -9% and the Z score is recorded as 1.31.

`O=C([C@@H](c1ccccc1)C1CC1)N1CCc2cnccc21`: the “% Inhibition” value is recorded as -17% and the Z score is given as 1.79.

`CCc1nc(C(=O)N2CCN(Cc3ccccc3)C[C@@H]2CC)co1`: the “% Inhibition” value stood at 2% and the Z score was -0.3.

In the case of `CCC(NCC1CCCn2ccnc21)C(=O)Nc1cc(C)on1` (stereo not drawn), the “% Inhibition” value was 13% and the Z score is -1.5.

As for `CCc1nccn1CCC(=O)N(CC(C)C)CC1CCN(Cc2ccccc2OC)CC1`, the “% Inhibition” value was -8% and the Z score is 1.2.

For the molecule `C[C@H](NC(=O)CCc1c[nH]c2ccccc12)c1ccco1`, the “% Inhibition” value is listed as 6% and the Z score is on record as -0.75.

Take `Cc1cc(NC(=O)c2nc3ccccn3c2F)ccc1N1CCCC1=O`: the “% Inhibition” value was -19% and the Z score was 1.9.

With `Cc1cc(Cn2cc3c4c(cccc42)[C@H](CC(C)C)N[C@H](C(=O)NCCN2CCOCC2)C3)no1`, the “% Inhibition” value is listed as -12% and the Z score was found to be 1.84.

Consider `CN(C(=O)c1ccccn1)C1(C(=O)NC2CCCCC2)CCCCC1`, for which the “% Inhibition” value is -6% and the Z score came to 0.68.

On to `O=C(NCC1CCN(C(=O)c2ccc[nH]2)CC1)c1ccoc1`, for which the “% Inhibition” value is reported as -5% and the Z score came out at 0.73.

Turning to `CCc1cc(C(=O)Nc2c(OC)ncnc2N(C)C)sc1C`, the “% Inhibition” value is recorded as -6% and the Z score was found to be 0.94.

On to `Cn1ccc([C@@H]2CCCCCN2C(=O)c2ccccc2F)n1`, for which the “% Inhibition” value is on record as 4% and the Z score is on record as -0.56.

Consider `C[C@@H]1OCCO[C@@H]1C(=O)Nc1nc2cnccc2[nH]1`, for which the “% Inhibition” value turned out to be 11% and the Z score is -1.65.

For `CCCCc1ccc(N(C)C(=O)c2ccc3nncn3c2)cc1`, the “% Inhibition” value is -10% and the Z score is on record as 1.5.

In the case of `CN(Cc1ccc(OC23CCCN(CC2)C3)cc1)Cc1ncc[nH]1` (stereo not drawn), the “% Inhibition” value was -18% and the Z score was 1.94.

Regarding `CCc1ccc(NC(=O)N2CCC3(CCC(=O)N(CC4CC4)C3)CC2)cc1`, the “% Inhibition” value is given as 4% and the Z score was -0.7.

Consider `Cc1ccc(N2CC(C(=O)NCC(O)CN3CCOCC3)CC2=O)cc1` (stereo not drawn), for which the “% Inhibition” value was -2% and the Z score is listed as 0.26.

Turning to `COc1ccc(Cn2nc(C3CC3)nc2C2CC2)cc1`, the “% Inhibition” value was 4% and the Z score was -0.57.

Regarding `COc1ccc(OC)c(CNC(=O)CN2CCn3nc(-c4ccc(Cl)cc4)cc3C2=O)c1`, the “% Inhibition” value is reported as -5% and the Z score was 0.6.

Consider `COC(=O)[C@H]1CC[C@@H](Nc2ccc(C#N)cc2F)C1`, for which the “% Inhibition” value is reported as 0% and the Z score turned out to be 0.05.

With `CCOC(=O)C(=O)Nc1nnc(C(C)C)s1`, the “% Inhibition” value is on record as -10% and the Z score stood at 1.89.

Take `CN1C(=O)[C@@H]2CC[C@H]1CN(Cc1c(-c3ccccc3)nc3ncccn13)C2`: the “% Inhibition” value was 1% and the Z score was -0.17.

In the case of `Cc1cc(C(=O)[C@H](C#N)c2nc(C(C)C)cs2)c(C)o1`, the “% Inhibition” value was -10% and the Z score is listed as 1.62.

On to `CNC(=O)[C@H](CNC(=O)c1ccc(=O)[nH]n1)Cc1ccc(F)cc1C`, for which the “% Inhibition” value is listed as -8% and the Z score is 1.4.

With `CCOc1ccc(CNC(=O)c2sc3ncnc(N(C)C4CCCCC4)c3c2C)cc1`, the “% Inhibition” value is on record as -13% and the Z score is recorded as 1.18.

As to `Cc1ccc(N(C(=O)CC2CS(=O)(=O)C2)C2CCOCC2)cc1F`, the “% Inhibition” value was -10% and the Z score was 1.38.
